B1: PhoQ; a variant is named by its letters at X, in order, P23837 (parent)
chain: MKKLLRLFFPLSLRVRFLLATAAVVLVLSLAYGMVALIGYSVSFDKTTFRLLRGESNLFYTLAKWENNKLHVELPENIDKQSPTMTLIYDENGQLLWAQRDVPWLMKMIQPDWLKSNGFHEIEADVNDTSLLLSGDHSIQQQLQEVREDDDDAEMTHSVAVNVYPATSRMPKLTIVVVDTIPVELKSSYMVWSWFIYVLSANLLLVIPLLWVAAWWSLRPIEALAKEVRELEEHNRELLNPATTRELTSLVRNLNRLLKSERERYDKYRTTLTDLTHSLKTPLXXLQXXLRSLRSEKMSVSDAEPVMLEQISRISQQIGYYLHRASMRGGTLLSRELHPVAPLLDNLTSALNKVYQRKGVNISLDISPEISFVGEQNDFVEVMGNVLDNACKYCLEFVEISARQTDEHLYIVVEDDGPGIPLSKREVIFDRGQRVDTLRPGQGVGLAVAREITEQYEGKIVAGESMLGGARMEVIFGRQHSAPKDE

The list shows a part of the results.

In the assay the parent is B1. In words: enrichment ratio after two sorts for PhoP signalling (ratio (wild type AVST 3.29)); higher = more functional. Conditions: with PhoP (E. coli).
Consider SKRA, for which the enrichment ratio was not above 0.25.
VDNH: the enrichment ratio was not above 0.25.
The value for NTHN was not above 0.25.
As for MRYA, the enrichment ratio is not above 0.25.
The same measure for ILMF: not above 0.25.
The value for RLLG was not above 0.25; that for VDQM was not above 0.25.
Take GFGK: the enrichment ratio was not above 0.25.
On to PEGQ, for which the enrichment ratio was not above 0.25.
With EENN, the enrichment ratio was not above 0.25.
On to GIIS, for which the enrichment ratio was determined as 1.55.
NRMG: the enrichment ratio was not above 0.25.
Turning to DMDM, the enrichment ratio was not above 0.25.
Consider AGCI, for which the enrichment ratio is 14.
The value for FNCV was not above 0.25; that for VPHS was not above 0.25; that for PQCD was not above 0.25.
For the variant TSCQ, the enrichment ratio came out at 21.3.
With RSFT, the enrichment ratio is not above 0.25.
For PLTI, the enrichment ratio was not above 0.25.
In the case of PQLK, the enrichment ratio was not above 0.25.
For the variant TPLS, the enrichment ratio was not above 0.25.
Take RRLR: the enrichment ratio was not above 0.25.
For the variant VMEG, the enrichment ratio was not above 0.25.
In the case of HHYN, the enrichment ratio is not above 0.25.
Regarding SWGP, the enrichment ratio is not above 0.25.
Regarding VPPW, the enrichment ratio was not above 0.25.
Turning to IEWE, the enrichment ratio is not above 0.25.
The same measure for VKDR: not above 0.25; for PAGV: not above 0.25.
The same measure for PCRH: not above 0.25.
In the case of NFDP, the enrichment ratio was not above 0.25.
Take IGNS: the enrichment ratio was not above 0.25.
Take AKTK: the enrichment ratio was not above 0.25.
For the variant FLVF, the enrichment ratio was not above 0.25.
In the case of DYPM, the enrichment ratio is not above 0.25.
For HKCG, the enrichment ratio was not above 0.25.
For HSKA, the enrichment ratio was not above 0.25.
Consider RAYA, for which the enrichment ratio is not above 0.25.
For AGFM, the enrichment ratio was 2.22.
Regarding TIMW, the enrichment ratio was not above 0.25.
Consider DVLM, for which the enrichment ratio is not above 0.25.
In the case of PSII, the enrichment ratio was not above 0.25.
In the case of WAMG, the enrichment ratio is not above 0.25.
The same measure for KPLF: not above 0.25; for VMPF: not above 0.25.
The same measure for IHEI: not above 0.25.
In the case of SARQ, the enrichment ratio is not above 0.25.
As to DGTM, the enrichment ratio was not above 0.25.
Regarding LLCA, the enrichment ratio is not above 0.25.
For the variant HWTP, the enrichment ratio is not above 0.25.
Take DTFP: the enrichment ratio was not above 0.25.
RCLW: the enrichment ratio is not above 0.25.
The value for ESLI was 0.353.
PNIY: the enrichment ratio is not above 0.25.
The same measure for QPFD: not above 0.25; for VHNY: not above 0.25; for VERK: not above 0.25.
FQVH: the enrichment ratio is not above 0.25.
PNSY: the enrichment ratio was not above 0.25.
The same measure for SPHA: not above 0.25; for KGES: not above 0.25; for QIHL: 9.08.
Regarding LATP, the enrichment ratio is not above 0.25.
As to TCCW, the enrichment ratio was not above 0.25.
On to NRKW, for which the enrichment ratio was not above 0.25.
The value for WGMR was not above 0.25.
For NDRE, the enrichment ratio was not above 0.25.
Consider HDCK, for which the enrichment ratio was not above 0.25.
For EWFV, the enrichment ratio is not above 0.25.
The value for GLNS was not above 0.25.
Take CFFV: the enrichment ratio was not above 0.25.
Turning to TDFC, the enrichment ratio is not above 0.25.
For ISHA, the enrichment ratio is not above 0.25.
Regarding IYQW, the enrichment ratio was not above 0.25.
With GEQS, the enrichment ratio was not above 0.25.
The value for KCYG was not above 0.25.
Regarding STYY, the enrichment ratio was not above 0.25.
For the variant KMSP, the enrichment ratio is not above 0.25.
Turning to WSQI, the enrichment ratio is not above 0.25.
The value for SKGH was 1.69; that for FELY was not above 0.25; that for VNYA was not above 0.25.
For the variant QCYF, the enrichment ratio is not above 0.25.
In the case of DFQT, the enrichment ratio is not above 0.25.
As to WYKC, the enrichment ratio is not above 0.25.
Take ARFW: the enrichment ratio was not above 0.25.
As for YNVK, the enrichment ratio is not above 0.25.
As to RVWW, the enrichment ratio was not above 0.25.
The value for TFDL was not above 0.25; that for WDPC was not above 0.25.
For MDLT, the enrichment ratio is not above 0.25.
As for HHLR, the enrichment ratio is not above 0.25.
Consider SEHL, for which the enrichment ratio is not above 0.25.
EEPR: the enrichment ratio was not above 0.25.
In the case of PSVG, the enrichment ratio is not above 0.25.
Turning to RCKN, the enrichment ratio is not above 0.25.
QHFS: the enrichment ratio is not above 0.25.
On to EADE, for which the enrichment ratio was not above 0.25.
Consider LKEH, for which the enrichment ratio is not above 0.25.
As for KFFS, the enrichment ratio was not above 0.25.
As to FGYK, the enrichment ratio is not above 0.25.
In the case of FHRD, the enrichment ratio is not above 0.25.
The value for DCKP was not above 0.25.
Turning to SHYL, the enrichment ratio was not above 0.25.
In the case of FDQH, the enrichment ratio is not above 0.25.
The same measure for ACHK: not above 0.25; for WEVN: not above 0.25; for IGFW: not above 0.25.
The same measure for ERGR: not above 0.25; for KRGP: not above 0.25.
Regarding EIFN, the enrichment ratio was not above 0.25.
On to GAKH, for which the enrichment ratio is not above 0.25.
The same measure for IDQK: not above 0.25; for TCVH: 1.81; for PWKH: not above 0.25.
In the case of VTRP, the enrichment ratio was not above 0.25.
The same measure for MPWN: not above 0.25; for VHGS: not above 0.25; for AISH: 6.86.
The same measure for FTTS: not above 0.25; for APCG: not above 0.25.
As to EHCN, the enrichment ratio is not above 0.25.
As to FFDC, the enrichment ratio is not above 0.25.
As to MYWF, the enrichment ratio is not above 0.25.
MTVQ: the enrichment ratio is not above 0.25.
The value for MYFC was not above 0.25.
The same measure for YYAH: not above 0.25.
For the variant IQQF, the enrichment ratio is not above 0.25.
In the case of ERRY, the enrichment ratio was not above 0.25.
With RCFQ, the enrichment ratio was not above 0.25.
In the case of FGLE, the enrichment ratio amounted to 9.52.
The same measure for FVCF: 12; for GSLD: not above 0.25.
For MGIL, the enrichment ratio stood at 6.12.
Consider RAVG, for which the enrichment ratio worked out at 1.75.
Regarding NCCL, the enrichment ratio is not above 0.25.
Consider VQDE, for which the enrichment ratio is not above 0.25.
For DCSG, the enrichment ratio was not above 0.25.
For the variant NTQF, the enrichment ratio is not above 0.25.
For AKFV, the enrichment ratio was not above 0.25.
The same measure for FYES: not above 0.25; for TYTR: 0.743.
For the variant GRNM, the enrichment ratio was not above 0.25.
In the case of LGCW, the enrichment ratio is not above 0.25.
Consider QYIS, for which the enrichment ratio was not above 0.25.
The value for SVCP was not above 0.25; that for PGDP was not above 0.25; that for HHQN was not above 0.25.
The same measure for RKSF: not above 0.25; for THPV: not above 0.25; for ELLM: not above 0.25.
As for LTWD, the enrichment ratio was not above 0.25.

The record behind these values is a collection of fitness landscapes (doi:10.1126/science.1257360).
